The text below walks through data of paper PMC9820451, “Coprinopsis cinerea Galectin CGL1 Induces Apoptosis and Inhibits Tumor Growth in Colorectal Cancer Cells” (International Journal of Molecular Sciences, 2022).

This data set concerns the molecule itself. The data set can be described thus: dynamic light scattering; dilutions of the purified galectin filtered through 0.22 µm membranes, Zetasizer Nano-S; molecular weight estimated from the hydrodynamic radius; self-association, tetramer.

One may read the stoichiometry N as the number of molecules, sites or subunits per partner or assembly.

B1: Coprinopsis cinerea galectin CGL2 (natural protein)
chain: MLYHLFVNNQVKLQNDFKPESVAAIRSSAFNSKGGTTVFNFLSAGENILLHISIRPGENVIVFNSRLKNGAWGPEERIPYAEKFRPPNPSITVIDHGDRFQIRFDYGTSIYYNKRIKENAAAIAYNAENSLFSSPVTVDVHGLLPPLPPA
notes: galectin CGL2 of Coprinopsis cinerea, full-length cgl2 amplified from genomic DNA of strain Okayama 7 (#130; ATCC MYA-4618), cloned into pET22b(+); No removal of the tag is told
In the case of B1, the “stoichiometry N” value is 4.
